The other results are listed elsewhere or left out. Most values come without repeats; read them as rough.
Test system: Salmonella enterica serovar Typhimurium SL1344
Test: bacterial growth OD600 after 18 h in MHB with 0.5 µg/mL polymyxin B; higher = more bacterial growth (less inhibition)
Conditions: 25 µM; polymyxin B 0.5 µg/mL; system: broth
Method: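 Secondary screen of the 553 primary hits at 25 µM. (i) S. Typhimurium SL1344 grown in Mueller-Hinton broth with 0.5 µg/mL polymyxin B, OD600 read after 18 h. (ii) SAFIRE assay: RAW 264.7 macrophages infected with S. Typhimurium sifB::gfp (MOI 30); compound added 2 h post-infection; cells fixed at 18 h; GFP-positive pixel fraction per macrophage imaged by confocal microscopy and expressed as % of DMSO control.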
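Also: polymyxin B level opens the outer membrane while sparing the inner membrane, with novobiocin wells as reference growth inhibitor.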

Structure (SMILES) | bacterial growth OD600
O=C(c1cn(Cc2ccccc2F)nn1)N(Cc1ccccc1)CC1CC1 | 0.001
O=C(c1cn(Cc2c(F)cccc2F)nn1)N(Cc1ccccc1)CC1CCC1 | -0.005
COc1cccc(CN2CCCC(C(=O)c3ccc(Cl)cc3C)C2)c1O (stereo not drawn) | 0.006
